Assay results reported in PubChem BioAssay AID624417 (National Center for Advancing Translational Sciences (NCATS), 2012).
Values joined by “and” are separate entries in the source; they are usually repeats but may differ in a detail not shown here. Equal values may be shown once. Out of some 410,000 compounds screened, about 6,400 (1.6%) were called active. Inconclusive results, whose numbers are uncertain, are shown with a selection of clear calls. The call rests on the fitted dose curve; in most records, active means well fitted inhibition curve with a large enough effect; inconclusive means small, poorly fitted or top-dose-only effect; inactive means no such curve, though single readings can be large or run the other way. Potencies of inconclusive entries are doubtful fits and often do not repeat.
Further: nearly all actives have a fitted effect of over 55% in size.
Potency means the concentration at half of the fitted maximal effect; tags describe the fitted curve by direction and shape.

These compounds were tested against Glucagon-like peptide 1 receptor (Homo sapiens) (UniProt P43220) (assay: qHTS of GLP-1 Receptor Inverse Agonists (Inhibition Mode)). Conditions: HEK293 GLP-1R CRE-luciferase, luminescence, 24 h, GLP-1R form is constitutively active; series mostly up to 38.3 µM.
Chain of UniProt P43220 (P43220 whole entry, looked up): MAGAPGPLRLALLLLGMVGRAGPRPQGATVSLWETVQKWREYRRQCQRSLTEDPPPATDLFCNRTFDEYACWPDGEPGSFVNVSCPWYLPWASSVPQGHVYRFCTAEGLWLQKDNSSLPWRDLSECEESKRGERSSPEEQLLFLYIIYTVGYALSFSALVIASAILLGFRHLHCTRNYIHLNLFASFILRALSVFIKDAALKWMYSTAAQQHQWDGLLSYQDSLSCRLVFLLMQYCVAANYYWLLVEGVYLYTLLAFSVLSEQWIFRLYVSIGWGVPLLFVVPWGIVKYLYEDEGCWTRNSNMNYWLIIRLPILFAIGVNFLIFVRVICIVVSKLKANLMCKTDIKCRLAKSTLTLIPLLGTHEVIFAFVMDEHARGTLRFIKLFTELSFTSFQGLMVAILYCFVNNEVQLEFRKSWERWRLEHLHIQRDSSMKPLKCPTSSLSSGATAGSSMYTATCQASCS
Outline: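 Seeding at 200 cells/uL, 12 h culture, 24 hr compound treatment, then luciferase reagent and a luminescence read; cells are HEK293 stably expressing a constitutively active GLP-1R plus cAMP-responsive luciferase.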
O=C(NCCc1ccc(Cl)cc1Cl)c1ccc2nc[nH]c2c1 was tested, and the Potency was inconclusive: 28.2 µM [inhibitor, single point].
For CCCN1CCc2c(sc3nc(SCC)n(-c4ccc(OC)cc4)c(=O)c23)C1, the Potency was inconclusive: 28.2 µM [inhibitor, single point].
For CN(C)c1nc(Nc2ccccc2)nc(N(C)C)n1, the Potency was inconclusive: 22.4 µM [inhibitor, single point].
For O=C(Nc1ccccn1)c1ccc2c(c1)S(=O)(=O)c1ccccc1C2=O, the Potency was “inactive”.
For CCOC(=O)C1=CN(Cc2cccc(F)c2)S(=O)(=O)N(CC)C1c1ccc(F)c(Cl)c1 (stereo unspecified), the Potency was inconclusive: 14.1 µM [inhibitor, single point].
In the case of CCc1nc2ccc(C(=O)NCc3cccs3)cn2c1N(CCC(C)C)CCN(C)C, the Potency is reported as inconclusive: 28.2 µM [inhibitor, single point].
CC(=O)c1ccc(OCC(O)CN2CCN(Cc3ccccc3)CC2)cc1 (stereo unspecified) was tested, and the Potency was “inactive”.
COc1ccccc1C(=O)N/C(=C/c1ccc(Br)cc1)C(=O)NCCCn1ccnc1 was tested, and the Potency was “inactive”.
For O=C(NNC1=C(C(=O)C(F)(F)F)CCC1)c1ccccc1Cl, the Potency was inconclusive: 3.55 µM [inhibitor, full curve, poor fit].
In the case of O=C(/C=C/c1ccco1)NC(=S)Nc1ccccc1O, the Potency is reported as “inactive”.
In the case of CC(C)=CCN1CCN(Cc2nc(-c3ccccc3)cs2)CC1CCO (stereo unspecified), the Potency is reported as inconclusive: 11.2 µM [inhibitor, partial curve, poor fit].
With COc1ccccc1NC(=O)c1cc(S(=O)(=O)N(C)C2CCCCC2)ccc1F the Potency was inconclusive: 11.2 µM [inhibitor, single point].
S=C(NCc1ccc2[nH]c3c(c2c1)CCCC3)Nc1ccccc1 was tested, and the Potency was inconclusive: 7.94 µM [inhibitor, partial curve, poor fit].
COCCNC(=O)Cn1cc(S(=O)(=O)Cc2ccccc2Cl)c2ccccc21 was tested, and the Potency was “inactive”.
In the case of S=C1c2ccccc2CN1c1ccccc1, the Potency is reported as “inactive”.
With CC1=C(C(=O)Nc2ccccc2C)C(c2cccnc2)n2nc(SCc3ccccc3)nc2N1 (stereo unspecified) the Potency was “inactive”.
With Cc1ccc(-c2ccc(C(=O)Nc3cccc(F)c3)o2)c2ccccc12 the Potency was inconclusive: 12.6 µM [inhibitor, single point].
With O=C1c2cccnc2-c2ncccc21 the Potency was “inactive”.
For Cc1ccc(-c2nc3ccccc3[nH]2)cc1NC(=O)/C=C/c1ccco1, the Potency was inconclusive: 11.2 µM [inhibitor, partial curve, poor fit].
In the case of O=C(Cc1cccc2ccccc12)NCC(=O)N1CCN(Cc2cccc(C(F)(F)F)c2)CC1, the Potency is reported as active: 10 µM.
In the case of O=S(=O)(c1cccc(-c2nnc(SCc3nc4ccccc4s3)o2)c1)N1CCOCC1, the Potency is reported as “inactive”.
In the case of Cc1ccc(-c2nnc(Nc3ccc(Br)cc3)c3ccccc23)cc1S(=O)(=O)N1CCOCC1, the Potency is reported as inconclusive: 31.6 µM [inhibitor, single point].
With CN(C)S(=O)(=O)c1cccc(C(=O)Nc2ccccc2N2CCCCC2)c1 the Potency was inconclusive: 20 µM [inhibitor, single point].
O=C(NC(=S)Nc1ccccn1)c1ccccc1 was tested, and the Potency was active: 10 µM.
In the case of COc1cccc(/C=C/c2ccc3cccc(O)c3n2)c1, the Potency is reported as inconclusive: 3.98 µM [inhibitor, full curve, poor fit].
In the case of CCc1ccc(NC(=O)CC2C(=O)NCCN2C(=S)Nc2ccccc2)cc1 (stereo unspecified), the Potency is reported as inconclusive: 11.2 µM [inhibitor, partial curve, poor fit].
Cc1onc(-c2ccccc2)c1C(=O)Nc1cccc(OC(C)C)c1 was tested, and the Potency was active: 11.2 µM.
With CCN(CC)C(=O)c1ccc(Oc2ccc([N+](=O)[O-])cc2Cl)cc1 the Potency was inconclusive: 10 µM [inhibitor, partial curve, poor fit].
Cc1ccccc1N1CCN(S(=O)(=O)Cc2ccccc2)CC1 was tested, and the Potency was inconclusive: 11.2 µM [inhibitor, partial curve, poor fit].
With Cc1cccc(N2CCN(C(=O)c3cccc(S(=O)(=O)N4CCOCC4)c3)CC2)c1C the Potency was inconclusive: 10 µM [inhibitor, partial curve, poor fit].
For COC(=O)C1=C(COc2ccccc2)NC(=O)NC1c1ccc(Cl)cc1 (stereo unspecified), the Potency was inconclusive: 11.2 µM [inhibitor, single point].
In the case of CCC(CC)C(=O)Oc1c(C(=O)N(C)C)cccc1-c1ccccc1, the Potency is reported as inconclusive: 11.2 µM [inhibitor, single point].
CC/C(=N\NC(=O)CSCc1ccccc1Br)c1ccc2c(c1)OCCO2 was tested, and the Potency was inconclusive: 5.62 µM [inhibitor, full curve, poor fit].
For O=C(CC1N=C2c3ccccc3N=C(SCc3ccc(Cl)cc3)N2C1=O)NCCc1ccccc1 (stereo unspecified), the Potency was “inactive”.
In the case of Clc1ccc(Nc2nc(-c3cccnc3)cs2)cc1, the Potency is reported as inconclusive: 22.4 µM [inhibitor, single point].
O=C(Nc1cc(C(F)(F)F)ccc1Cl)C1CCN(c2nnc(-n3cccc3)s2)CC1 was tested, and the Potency was inconclusive: 22.4 µM [inhibitor, partial curve, poor fit].
In the case of CC(NC(=O)CN1CCN(S(=O)(=O)c2ccc(Br)cc2)CC1)c1ccccc1 (stereo unspecified), the Potency is reported as inconclusive: 28.2 µM [inhibitor, single point].
In the case of CCOC(=O)C1CCN(c2nc(C)nc3c2oc2ccccc23)CC1, the Potency is reported as inconclusive: 28.2 µM [inhibitor, single point].
c1ccc(CNCCC(Cc2ccccc2)c2ccco2)cc1 (stereo unspecified) was tested, and the Potency was active: 8.91 µM.
O=c1cc(CSc2ncn[nH]2)[nH]c2c(Cl)cccc12 was tested, and the Potency was “inactive”.
For Cc1ccc2c(c1)N(C(=O)CCC(=O)Nc1ccccc1Cl)CC(C)O2 (stereo unspecified), the Potency was inconclusive: 20 µM [inhibitor, single point] and inconclusive: 10 µM [inhibitor, single point].
CC(C)Oc1ccccc1OCCCOc1cccc2cccnc12 was tested, and the Potency was inconclusive: 28.2 µM [inhibitor, single point].
For Cn1nccc1NC(=O)Nc1ccc(OC(F)(F)F)cc1, the Potency was inconclusive: 7.94 µM [inhibitor, partial curve, poor fit].
For Cc1ccc(-c2[nH]ncc2/C=N/n2c(COc3ccccc3)nc3ccccc3c2=O)cc1, the Potency was inconclusive: 12.6 µM [inhibitor, partial curve, poor fit].
O=C(Nc1ccc(-c2cc(C(F)(F)F)nn2-c2ccccc2)cc1)c1cccc(F)c1 was tested, and the Potency was inconclusive: 11.2 µM [inhibitor, partial curve, poor fit].
COc1ccc(CCNC(=O)C2CCC(=O)N2CCc2ccccc2)cc1OC (stereo unspecified) was tested, and the Potency was “inactive”.
With CCOC(=O)c1c(NC(=O)c2cc(CC)on2)sc(C)c1C the Potency was “inactive”.
In the case of CCN1CCC(N(Cc2cccc(OC)c2)C(=O)Nc2cccc(C(F)(F)F)c2)CC1, the Potency is reported as inconclusive: 28.2 µM [inhibitor, single point].
CC(OC(=O)Cc1c(F)cccc1Cl)C(=O)NCCC1=CCCCC1 (stereo unspecified) was tested, and the Potency was inconclusive: 10 µM [inhibitor, partial curve, poor fit].
CSc1nc(S(=O)(=O)c2ccc(C)cc2)c(Cl)s1 was tested, and the Potency was inconclusive: 28.2 µM [inhibitor, single point].
In the case of Cc1ccc(C)c(NC(NC(=O)c2ccccn2)C(Cl)(Cl)Cl)c1 (stereo unspecified), the Potency is reported as inconclusive: 28.2 µM [inhibitor, single point].
With COc1cccc(NC(=O)Cn2cc(C(=O)C3CCCCC3)c3ccccc32)c1 the Potency was inconclusive: 11.2 µM [inhibitor, partial curve, poor fit].
With Cc1cccc(C)c1NC(=O)CN(C)CCc1ccccc1 the Potency was inconclusive: 28.2 µM [inhibitor, single point].
In the case of O=C(N/N=C/c1ccccc1F)NC12CC3CC(CC(C3)C1)C2, the Potency is reported as inconclusive: 5.62 µM [inhibitor, partial curve, poor fit].
With COc1cc(C)c(Cl)cc1S(=O)(=O)NCCc1c(C)[nH]c2ccccc12 the Potency was inconclusive: 12.6 µM [inhibitor, single point].
For Cc1ccc(C(=O)NC(C)c2ccc(F)cc2)cc1 (stereo unspecified), the Potency was “inactive”.
With COc1cccc(CNC(=O)CN2C(=O)N(c3cc(C)ccc3C)S(=O)(=O)c3ccccc32)c1OC the Potency was inconclusive: 10 µM [inhibitor, partial curve].
In the case of COc1ccc2oc(=O)c(-c3csc(/C(C#N)=C/c4ccc(F)cc4)n3)cc2c1, the Potency is reported as “inactive”.
With CCc1nc2ccccc2c(C(=O)OCC(=O)N(C)Cc2ccccc2)c1C the Potency was inconclusive: 14.1 µM [inhibitor, single point].
In the case of COc1ccccc1/C=C/C(=O)NCC(=O)N/N=C/c1cc(Br)ccc1OC, the Potency is reported as inconclusive: 10 µM [inhibitor, partial curve, poor fit].
COc1ccc(CCC(=O)Nc2ccc(Cl)c(S(=O)(=O)N3CCCC3)c2)cc1 was tested, and the Potency was active: 10 µM.
For CC(NC(=O)c1cccc(S(=O)(=O)N2CCN(Cc3ccccc3)CC2)c1)c1ccccc1Cl (stereo unspecified), the Potency was inconclusive: 11.2 µM [inhibitor, partial curve].
For CCOc1ccc(C2c3[nH]c4ccccc4c3CCN2C(=O)Cn2cncn2)cc1 (stereo unspecified), the Potency was inconclusive: 7.94 µM [inhibitor, partial curve, poor fit].
For CCC1=Nc2cc(C(=O)NCc3ccco3)ccc2Sc2ccc(C)cc21, the Potency was inconclusive: 0.316 µM [inhibitor, full curve, poor fit].
With CCOC(=O)Cn1c(=O)n(CC2CCCO2)c2nc(-c3ccc(OC)cc3OC)nc(C(N)=O)c21 (stereo unspecified) the Potency was “inactive”.
In the case of Cc1ccc(CNC(=O)CCCn2c(=O)c3ccccc3n(CC(=O)C(C)(C)C)c2=O)cc1, the Potency is reported as inconclusive: 10 µM [inhibitor, partial curve, poor fit].
